Results: the supplement of paper PMC3334620
The full ranking holds about 33,000 sequences; the median of “E-score (-0.5 to 0.5)” is about -0.017, and the highest 2% start at about 0.3. The list shows a part of the results.

molecular target: T1, Sut1 (UniProt P53032); test: PBM E-score (8-mer binding enrichment) (E-score (-0.5 to 0.5)); higher = stronger / more preferred TF binding; most listed sequences are background and not binding sites; conditions: protein concentration: 200 nM; construct: GST-full length
T1 sequence: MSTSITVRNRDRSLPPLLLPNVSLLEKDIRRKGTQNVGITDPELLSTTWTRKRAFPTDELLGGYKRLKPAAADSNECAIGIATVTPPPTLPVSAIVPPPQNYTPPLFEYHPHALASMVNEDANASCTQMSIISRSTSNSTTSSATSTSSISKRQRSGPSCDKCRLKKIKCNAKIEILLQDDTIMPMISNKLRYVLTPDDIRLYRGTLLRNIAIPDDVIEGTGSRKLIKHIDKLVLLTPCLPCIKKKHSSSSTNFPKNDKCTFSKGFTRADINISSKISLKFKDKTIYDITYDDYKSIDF
Outline: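 Universal all-10-mer Agilent arrays, double-stranded by primer extension on fresh or once-stripped slides, were probed with about 100-200 nM GST-tagged yeast transcription factors made by PURExpress. Fluorescent anti-GST detected bound protein, and masliner normalised the scans. E-scores from the Universal PBM Analysis Suite were given to each ungapped eight-base word pooled with its reverse complement.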

| Sequence | PBM E-score |
| --- | --- |
| CTAAGATA | 0.115 |
| CACCTCTC | -0.222 |
| CGTGAGCC | -0.151 |
| GAGCCGGC | 0.125 |
| TCATGAAA | -0.0244 |
| AGTTTATG | 0.0377 |
| GGGGTGGA | -0.11 |
| AACGAAAG | 0.00267 |
| CACAAATC | 0.117 |
| CATTGGTC | -0.017 |
| AAAGTTCC | 0.0675 |
| GTTTTCGA | 0.113 |
| AAGTCCCA | -0.325 |
| AATATTCA | 0.219 |
| CAACAGTA | -0.0294 |
| CTGAGTGA | 0.168 |
| AGTAGATC | 0.0396 |
| CACTGCTG | -0.372 |
| CATTTGAG | 0.0705 |
| ATTCCCCG | 0.0831 |
| AATTTCAT | 0.196 |
| CGGGACCA | -0.193 |

| Sequence | PBM E-score |
| --- | --- |
| GGGGCTCA | -0.269 |
| ACCGACAA | 0.0505 |
| AAAAAGCG | 0.25 |
| GCTGTCGA | -0.15 |
| AAAGAAAT | 0.246 |
| CCCTATCC | -0.0823 |
| CACTTACA | 0.202 |
| GTCGGAAA | 0.355 |
| GTGTACTA | 0.0759 |
| GTAAGGTA | 0.218 |
| ATTCTACG | 0.0932 |
| GCGCCGCC | -0.155 |
| CTCGGGTA | -0.125 |
| ACAGGTCA | -0.234 |
| AAGACCTA | -0.0606 |
| ACAGCGCC | -0.0715 |
| AATACGGG | 0.00153 |
| CGCCCGTC | -0.116 |
| ATGAGCCG | -0.135 |
| GAGTTCCC | -0.154 |
| AGAGTATA | 0.00921 |
| ACCTTCTG | -0.00802 |

| Sequence | PBM E-score |
| --- | --- |
| ATGCCCTG | -0.331 |
| CAAGCTTG | 0.0115 |
| CAGTTCTC | -0.0145 |
| GATGCGTA | 0.0586 |
| AGAGGAAT | -0.177 |
| ACATAATC | 0.187 |
| CTATCTCA | 0.156 |
| AGACTTTC | 0.0853 |
| AAACCCCC | -0.346 |
| GTGCGCCA | -0.267 |
| TGGCTAAA | 0.143 |
| GTAAAAAA | 0.288 |
| TGTCATAA | 0.153 |
| GCGACTCC | 0.119 |
| ATTCCTAA | 0.12 |
| CTCTGCAA | -0.0084 |
| CGACGTTC | -0.246 |
| AAACGAAG | 0.132 |
| GATCAAAA | 0.0728 |
| ATAAGGCC | -0.0239 |
| AGACAGAT | 0.137 |
| AGATGGGA | -0.12 |

| Sequence | PBM E-score |
| --- | --- |
| AGTCGATA | 0.117 |
| AGCAATGC | 0.0322 |
| AACTCTTG | -0.135 |
| AACACGGC | -0.107 |
| AGTCTGGG | -0.371 |
| CGTCTCTC | 0.0248 |
| ACCGGTTG | 0.12 |
| ACTCTTCA | 0.0318 |
| ACCAGTCT | -0.0713 |
| CACTAATG | -0.0155 |
| ACTTGAAC | 0.157 |
| ACTCCCCC | -0.364 |
| ACGTCTGG | -0.144 |
| AAGTATAC | 0.193 |
| GTGACGCA | -0.147 |
| ATTATGTA | 0.244 |
| ATCTTAGA | 0.193 |
| CATAATGG | -0.254 |
| GTCGAATA | -0.119 |
| CCGTTACC | 0.134 |
| CACAGCGA | -0.00299 |
| GATATGAA | 0.112 |

| Sequence | PBM E-score |
| --- | --- |
| AGACGGAG | 0.322 |
| ATACGCTA | -0.0645 |
| GAATGGCA | -0.0145 |
| CAGGAGGA | -0.184 |
| CGCAGATA | -0.189 |
| ATCTCGAC | 0.0641 |
| ACGAGCGA | -0.158 |
| GACTACAA | 0.099 |
| GGCAACAC | -0.0334 |
| ACAAAAAC | 0.178 |
| GAACATAC | 0.167 |
| TAACGAAA | 0.154 |
| AGGCAGTA | -0.156 |
| TCCGTACA | 0.291 |
| GTATCTAA | 0.171 |
| ATAATCGG | 0.281 |
| GCGGAAAC | -0.0559 |
| ATCTGATG | 0.0524 |
| ATACCATC | 0.135 |
| CCTTGTTA | -0.0816 |
| AGTCGTTA | 0.141 |
